Laboratory results: PubChem BioAssay AID2147 (National Center for Advancing Translational Sciences (NCATS), 2009)
In all, about 230,000 compounds went through this assay and about 3,600 (1.6%) were called active. This list was built around the results that the source calls inconclusive (neither active nor inactive); the mix of calls is not that of the screen. Calls come from the whole dose curve; as a rule, active = well fitted inhibition curve with a large enough effect (not every such curve was filed as active); inconclusive = small, poorly fitted or top-dose-only effect, or another doubt; inactive = no such curve, though single readings can be large or run the other way. A potency beside an inconclusive call is a rough fit, not a confirmed value.

Target: Lysine-specific demethylase 4E (Homo sapiens) (UniProt B2RXH2)
Test: qHTS Assay for Inhibitors of Human Jumonji Domain Containing 2E (JMJD2E)
Conditions: JMJD2E catalytic domain, FDH-coupled NADH fluorescence (FDH is formaldehyde dehydrogenase); series mostly up to 57.1 µM; activity change, negative = inhibition: at the top concentration
Note: nearly all actives have a fitted effect of over 50% in size.
Potency is the fitted concentration of half-maximal effect; tags give direction and shape of the fitted curve.
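Throughout, for activity change, negative = inhibition: 0% = wells with enzyme and -100% = buffer wells without enzyme.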

Chain of UniProt B2RXH2 (B2RXH2 whole entry, looked up, the tested form may be a part): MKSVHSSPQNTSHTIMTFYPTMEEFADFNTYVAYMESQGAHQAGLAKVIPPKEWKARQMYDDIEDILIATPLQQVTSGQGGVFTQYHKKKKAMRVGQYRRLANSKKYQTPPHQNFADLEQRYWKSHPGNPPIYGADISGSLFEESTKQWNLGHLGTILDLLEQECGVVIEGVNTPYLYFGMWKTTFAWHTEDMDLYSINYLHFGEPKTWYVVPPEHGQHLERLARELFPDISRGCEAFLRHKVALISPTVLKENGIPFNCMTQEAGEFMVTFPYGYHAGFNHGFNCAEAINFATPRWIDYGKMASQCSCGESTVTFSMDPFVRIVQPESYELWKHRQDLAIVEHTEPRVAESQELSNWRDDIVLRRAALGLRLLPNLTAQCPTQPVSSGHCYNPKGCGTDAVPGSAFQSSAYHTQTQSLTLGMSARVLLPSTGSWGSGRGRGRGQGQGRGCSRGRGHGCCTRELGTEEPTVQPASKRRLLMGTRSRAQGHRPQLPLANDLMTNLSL

| SMILES | Potency | activity change, negative = inhibition |
| --- | --- | --- |
| O=C(O)CN(c1ccccn1)S(=O)(=O)c1ccccc1 | inconclusive: 25.1 µM [inhibitor, partial curve] | – |
| CCN1CCN(c2cc3c(nn2)Oc2ccccc2N3C)CC1 | inconclusive: 31.6 µM [inhibitor, partial curve] | – |
| O=C(NCc1ccco1)/C(=C/C=C\c1ccccc1)NC(=O)c1ccc(Br)o1 | inconclusive: 39.8 µM [inhibitor, single point] | – |
| CCNC(=O)/C(C#N)=C/c1c(N2CCN(Cc3ccc4c(c3)OCO4)CC2)nc2c(C)cccn2c1=O | inconclusive: 12.6 µM [inhibitor, partial curve] | – |
| CC[C@@H]1OC(=O)[C@H](C)[C@H](O[C@@H]2C[C@](C)(OC)[C@H](O)[C@H](C)O2)[C@H](C)[C@H](O[C@@H]2O[C@@H](C)C[C@@H](N(C)C)[C@@H]2O)[C@](C)(O)C[C@H](C)[C@@H]2N[C@H](COCCOC)O[C@H]([C@@H]2C)[C@]1(C)O | – | inactive: 4.67% [at 25.5 µM] |
| COc1ccc(-c2cc(=O)c3ccccc3o2)cc1OC | inconclusive: 3.55 µM [inhibitor, full curve] | – |
| CN(C)Cc1c(O)ccc2c(-c3ccccc3)cc(=O)oc12 | – | inactive: -0.419% |
| CCN1C(=O)/C(=C/C=C2/SCCN2C)SC1=S | – | inactive: -4.04% |
| O=C(O)CSCC(=O)c1ccccc1 | – | inactive: -1.74% |
| CCCCS(=O)(=O)c1sc2nc(C)cc(C)c2c1N | inconclusive: 28.2 µM [inhibitor, single point] | – |
| Cc1oc(-c2cccc3ccccc23)nc1CN1CCC[C@H]1CO | inconclusive: 31.6 µM [inhibitor, partial curve] | – |
| CCC1(CC)NC(=O)N(CC(=O)Nc2ccc(S(=O)(=O)N3CCOCC3)cc2)C1=O | – | inactive: 6.94% |
| Cc1ccc2nc3c(cc2c1)c(NC(=O)C1CCCO1)nn3CC(C)C (centres undefined) | inconclusive: 25.1 µM [inhibitor, partial curve] | – |
| COc1ccc(C(=O)N2C(=O)c3ccc(N)cc3C2=O)cc1 | inconclusive: 1.58 µM [inhibitor, full curve] | – |
| Cc1oncc1-c1cn2ccccc2n1 | inconclusive: 31.6 µM [inhibitor, partial curve] | – |
| COC(=O)CCNCCSc1nnc(-c2ccco2)n1Cc1ccccc1 | inconclusive: 25.1 µM [inhibitor, single point] | – |
| Cc1ccc(NC(=O)c2ccc3c(c2)C(=O)N(Cc2cccnc2)C3=O)c(C)c1 | inconclusive: 35.5 µM [inhibitor, single point] | – |
| CC(=O)c1sc(N/N=C\c2ccc(C)cc2)nc1C | inconclusive: 25.1 µM [inhibitor, partial curve] | – |
| CCCCNS(=O)(=O)c1ccc2nc(-c3cccs3)cc(C(=O)NCC(OC)OC)c2c1 | inconclusive: 28.2 µM [inhibitor, partial curve] | – |
| CCOC(=O)c1c(NC(=O)NC(C)(C)C)sc2c1CCN(C)C2 | inconclusive: 39.8 µM [inhibitor, single point] | – |
| Cc1nc2ccc(NC(=O)NCCO)cc2s1 | inconclusive: 39.8 µM [inhibitor, single point] | – |
| c1ccc(-n2cc(CN3CCCC(CN4CCCC4)C3)c(-c3ccc4c(c3)OCO4)n2)cc1 (centres undefined) | inconclusive: 31.6 µM [inhibitor, partial curve] | – |
| COc1ccc(Nc2oc(-c3cccs3)nc2C#N)cc1 | inconclusive: 35.5 µM [inhibitor, partial curve] | – |

| SMILES | Potency | activity change, negative = inhibition |
| --- | --- | --- |
| Nc1cc(C(=O)OCC(=O)N2CCCC2)ccc1Cl | inconclusive: 28.2 µM [inhibitor, partial curve] | – |
| COc1ccc(C(=O)OCC(=O)N2C(C)CCCC2C)cc1[N+](=O)[O-] (centres undefined) | – | inactive: -0.812% |
| COc1ccc(-c2nn(-c3ccccc3)cc2CNC(=O)c2cccc([N+](=O)[O-])c2)cc1 | – | inactive: -1.99% |
| O=C(NCCN1CCN(Cc2ccccc2)CC1)c1cc2c(=O)[nH]c3ccccc3c2s1 | inconclusive: 28.2 µM [inhibitor, partial curve] | – |
| O=C(OCc1cnc(Cl)s1)c1ccccc1Cl | – | inactive: 6.13% |
| O=C(Oc1ccc(NC2=C(Cl)C(=O)c3ccccc3C2=O)cc1)c1ccc([N+](=O)[O-])cc1 | – | inactive: 9.48% |
| CCCCCCc1cc2cc(C(=O)NCc3ccccc3)c(=N)oc2cc1O | inconclusive: 25.1 µM [inhibitor, partial curve] | – |
| CN1CCN(C(=O)CSc2nc(-c3ccncc3)ccc2C#N)CC1 | inconclusive: 35.5 µM [inhibitor, single point] | – |
| COCCN(C(=O)C(C)C)c1nnc(-c2ccc(C(C)(C)C)cc2)s1 | inconclusive: 35.5 µM [inhibitor, single point] | – |
| CSc1sc(-c2n[nH]c(=S)n2C)c2c1C=CCC2 | inconclusive: 28.2 µM [inhibitor, single point] | – |
| O=C(c1cccnc1NCc1ccc(F)cc1)N1CCOCC1 | inconclusive: 28.2 µM [inhibitor, single point] | – |
| COc1ccc(S(=O)(=O)N(C)C)cc1NC(=O)COC(=O)CC1CCCC1 | – | inactive: -2.44% |
| CCN(CC)S(=O)(=O)c1ccc(N2CCOCC2)c(NC(=O)Cc2cccc3ccccc23)c1 | inconclusive: 39.8 µM [inhibitor, single point] | – |
| CC(=O)N1CCN(Cc2nc3cc(NC(=O)COc4ccccc4)ccc3n2C)CC1 | inconclusive: 35.5 µM [inhibitor, single point] | – |
| N#Cc1c(N2CCCC(O)C2)nc(N)c2c(N)nc3c(c12)CC(=O)N3C12CC3CC(CC(C3)C1)C2 (centres undefined) | inconclusive: 8.91 µM [inhibitor, partial curve] | – |
| Cc1cc(Cl)ccc1OCc1cn2cccnc2n1 | inconclusive: 28.2 µM [inhibitor, single point] | – |
| c1ccc(-c2ncc(-c3ccn[nH]3)s2)cc1 | inconclusive: 31.6 µM [inhibitor, partial curve] | – |
| O=C(Oc1coc(CSc2ncccn2)cc1=O)c1ccco1 | – | inactive: -4.06% |
| CCN1CCCc2cc(CN(CCN3CCOCC3)C(=S)Nc3cccc(C)c3)ccc21 | inconclusive: 17.8 µM [inhibitor, single point] | – |
| CCOC(=O)C1=C(C)NC(C)=C(C(=O)OCC)C1C(=O)OCC(=O)N1CCCCC1CC (centres undefined) | inconclusive: 39.8 µM [inhibitor, single point] | – |
| O=c1cc(CN2CCN(c3cccc(C(F)(F)F)c3)CC2)nc2sccn12 | – | inactive: -0.0879% |
| COc1ccc(-n2c(O)c(/C=N/n3cnnc3)c3ccccc3c2=O)cc1 | inconclusive: 28.2 µM [inhibitor, partial curve] | – |
| Cc1ccc(-n2c(-c3ccncc3)n[nH]c2=S)cc1 | – | inactive: 0.0027% |

| SMILES | Potency | activity change, negative = inhibition |
| --- | --- | --- |
| Cc1nc2sc(C#N)c(N)c2c2c1CCCC2 | inconclusive: 28.2 µM [inhibitor, partial curve] | – |
| COc1ccc2c(C)cc(=O)oc2c1C | inconclusive: 25.1 µM [inhibitor, partial curve] | – |
| Cc1c(C#N)sc2nc(-c3ccccc3)nc(N3CCCC3)c12 | inconclusive: 0.891 µM [inhibitor, full curve] | – |
| O=C(Nc1ccccc1)c1ccc(N2CCN(c3ccccc3)CC2)c(S(=O)(=O)N2CCOCC2)c1 | inconclusive: 35.5 µM [inhibitor, single point] | – |
| O=C(Nc1ccc2c(c1)oc1ccccc12)N1CCOCC1 | inconclusive: 35.5 µM [inhibitor, single point] | – |
| O=C(Cn1nnc2c(cnn2-c2ccc(F)cc2)c1=O)Nc1ccccc1C(F)(F)F | inconclusive: 25.1 µM [inhibitor, partial curve] | – |
| CC(=O)c1sc(-c2ccccc2)cc1NS(=O)(=O)c1ccc(C)cc1 | inconclusive: 31.6 µM [inhibitor, single point] | – |
| O=C1NC(=Nc2ccc3ccccc3c2)S/C1=C/c1ccco1 | – | inactive: -2.38% |
| O=C1C(c2cc(=O)c3ccccc3[nH]2)=C(O)c2ccccc21 | – | inactive: 3.05% |
| Cc1ccccc1NC(=O)c1cn2c(nc3ccccc32)c(C#N)c1C | inconclusive: 31.6 µM [inhibitor, single point] | – |
| Cn1c(=O)c2c(nc(N3CCN(c4ccccc4)CC3)n2CCCc2ccccc2)n(C)c1=O | – | inactive: 1.71% |
| COC(=O)c1ccccc1NC(=O)NCc1ccco1 | inconclusive: 35.5 µM [inhibitor, single point] | – |
| COc1cc2[nH]c(=S)n(CCN3CCOCC3)c(=O)c2cc1OC | – | inactive: -6.63% |
| O=C(CSc1ccc2nnc(-c3ccccn3)n2n1)N1CCOCC1 | inconclusive: 35.5 µM [inhibitor, partial curve] | – |
| O=C(c1cccnc1)N(c1cc2sc(=O)oc2c2ccccc12)S(=O)(=O)c1ccccc1 | active: 14.1 µM | – |
| COC(=O)c1ccccc1NS(=O)(=O)c1ccc2c3c(cccc13)C(=O)N2 | inconclusive: 35.5 µM [inhibitor, single point] | – |
| COc1cccc(CN2CCNC(=O)C2CC(=O)N2CCOc3ccccc3C2)c1OC (centres undefined) | – | inactive: 8.11% |
| Cc1c(-c2csc(N)n2)cnn1C | – | inactive: -0.188% |
| Cc1ccc(N2C(=O)CC(Sc3nc4ccccc4o3)C2=O)cc1Cl (centres undefined) | – | inactive: 1.88% |
| Cn1cccc1Cc1nnc(SCC(=O)Nc2nc3ccccc3s2)n1CCc1ccccc1 | inconclusive: 25.1 µM [inhibitor, single point] | – |
| CCS(=O)(=O)Nc1c(C(=O)OC)[nH]c2ccccc12 | inconclusive: 31.6 µM [inhibitor, partial curve] | – |
| COc1cc2nc(-c3ccccc3)nc(N3CCCC3)c2cc1OC | inconclusive: 39.8 µM [inhibitor, single point] | – |
| COC(=O)c1ccc(C(=O)OC)c(NC(=O)Nc2ccc3c(c2)OCO3)c1 | inconclusive: 22.4 µM [inhibitor, single point] | – |
